Source: the supplement of paper PMC4967469
pIC50: −log10 of the molar value. By IC50 is meant the dose at which the fit gives 50% viability; where the fit passes the top or lowest dose, that dose stands as a limit. AUC sums up the same curve from the lowest dose to the 256-fold higher top dose; the more sensitive the line, the further below 1. For some of these results: A top dose marked as inferred was calculated from the reported fits. For some of these results: Where an entry number is given, a second screen of the drug exists; the two often differ.

Experiments:
Test in all cases: Viability of human cancer cell lines after 72 h of drug (GDSC screen)
5-Fluorouracil = compound: O=c1[nH]cc(F)c(=O)[nH]1 [5-Fluorouracil]; conditions: top dose 32 µM; top dose inferred
Method: (§1)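 Human cancer cell lines in 384-well plates, medium with 10% serum, drug for 72 h over a 256-fold dose range (nine 2-fold or five 4-fold steps up to the top dose). Adherent lines were fixed and stained with the nucleic acid dye Syto60, suspension lines read with resazurin; signal relative to control wells, capped at 0 and 100%. One two-parameter sigmoid per drug and line, fitted in a mixed model over all curves with the slope shared within a line.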

QS11 = compound: OC[C@H](Cc1ccccc1)Nc1nc(Oc2ccc3c(c2)CCC3)nc2c1ncn2Cc1ccc(-c2ccccc2)cc1 [QS11]; conditions: top dose 10.24 µM
Method: as §1

AC220 = compound: CC(C)(C)c1cc(NC(=O)Nc2ccc(-c3cn4c(n3)sc3cc(OCCN5CCOCC5)ccc34)cc2)no1 [AC220]; conditions: top dose 1.024 µM; top dose inferred
Method: as §1

JNK-9L = compound: Fc1cc(-c2ccnc(Nc3ccc(-n4cnc(N5CCOCC5)n4)cc3)n2)cc(N2CCOCC2)c1 [JNK-9L]; conditions: top dose 5.12 µM; top dose inferred
Method: as §1

OSU-03012 = compound: NCC(=O)Nc1ccc(-n2nc(C(F)(F)F)cc2-c2ccc3c(ccc4ccccc43)c2)cc1 [OSU-03012]; conditions: top dose 16 µM; top dose inferred
Method: as §1

RDEA119 = compound: COc1cc(F)c(F)c(Nc2ccc(I)cc2F)c1NS(=O)(=O)C1(C[C@H](O)CO)CC1 [RDEA119]; conditions: top dose 5 µM, top dose inferred
Method: as §1

CUDC-101 = compound: C#Cc1cccc(Nc2ncnc3cc(OC)c(OCCCCCCC(=O)NO)cc23)c1 [CUDC-101]; conditions: top dose 5.12 µM; top dose inferred
Method: as §1

## H2595 (mesothelioma, adherent)
5-Fluorouracil
  AUC: 0.853
  pIC50: < 4.49
QS11
  AUC: 0.98
  pIC50: < 4.99
AC220
  AUC: 0.98
  pIC50: < 5.99
JNK-9L
  AUC: 0.687
  pIC50: 5.88
OSU-03012
  AUC: 0.852
  pIC50: < 4.80
RDEA119; screen: GDSC drug entry 1014
  AUC: 0.949
  pIC50: < 5.30
RDEA119; screen: GDSC drug entry 1526
  AUC: 0.862
  pIC50: < 5.30
CUDC-101
  AUC: 0.644
  pIC50: 6.03

## H2722 (mesothelioma, adherent)
5-Fluorouracil
  AUC: 0.971
  pIC50: < 4.49
QS11
  AUC: 0.984
  pIC50: < 4.99
AC220
  AUC: 0.984
  pIC50: < 5.99
JNK-9L
  AUC: 0.677
  pIC50: 5.96
OSU-03012
  AUC: 0.84
  pIC50: 4.85
RDEA119; screen: GDSC drug entry 1526
  AUC: 0.869
  pIC50: < 5.30
CUDC-101
  AUC: 0.585
  pIC50: 6.24

## H2731 (mesothelioma, adherent)
5-Fluorouracil
  AUC: 0.982
  pIC50: < 4.49
QS11
  AUC: 0.984
  pIC50: < 4.99
AC220
  AUC: 0.969
  pIC50: < 5.99
JNK-9L
  AUC: 0.934
  pIC50: < 5.29
OSU-03012
  AUC: 0.879
  pIC50: < 4.80
RDEA119; screen: GDSC drug entry 1014
  AUC: 0.887
  pIC50: < 5.30
RDEA119; screen: GDSC drug entry 1526
  AUC: 0.867
  pIC50: < 5.30
CUDC-101
  AUC: 0.13
  pIC50: > 7.70

## H2795 (mesothelioma, adherent)
5-Fluorouracil
  AUC: 0.975
  pIC50: < 4.49
QS11
  AUC: 0.879
  pIC50: < 4.99
AC220
  AUC: 0.987
  pIC50: < 5.99
JNK-9L
  AUC: 0.659
  pIC50: 6.06
OSU-03012
  AUC: 0.881
  pIC50: < 4.80
RDEA119; screen: GDSC drug entry 1014
  AUC: 0.611
  pIC50: 6.20
CUDC-101
  AUC: 0.62
  pIC50: 6.17

## H2818 (mesothelioma, adherent)
5-Fluorouracil
  AUC: 0.957
  pIC50: < 4.49
QS11
  AUC: 0.989
  pIC50: < 4.99
AC220
  AUC: 0.972
  pIC50: < 5.99
JNK-9L
  AUC: 0.806
  pIC50: 5.57
OSU-03012
  AUC: 0.989
  pIC50: < 4.80
RDEA119; screen: GDSC drug entry 1526
  AUC: 0.945
  pIC50: < 5.30
CUDC-101
  AUC: 0.813
  pIC50: 5.54

## H2869 (mesothelioma, adherent)
5-Fluorouracil
  AUC: 0.974
  pIC50: < 4.49
QS11
  AUC: 0.976
  pIC50: < 4.99
AC220
  AUC: 0.975
  pIC50: < 5.99
JNK-9L
  AUC: 0.636
  pIC50: 6.08
OSU-03012
  AUC: 0.865
  pIC50: < 4.80
RDEA119; screen: GDSC drug entry 1014
  AUC: 0.959
  pIC50: < 5.30
RDEA119; screen: GDSC drug entry 1526
  AUC: 0.913
  pIC50: < 5.30
CUDC-101
  AUC: 0.608
  pIC50: 6.17

## H3118 (head and neck, adherent)
5-Fluorouracil
  AUC: 0.687
  pIC50: 5.15
QS11
  AUC: 0.853
  pIC50: 5.04
AC220
  AUC: 0.981
  pIC50: < 5.99
JNK-9L
  AUC: 0.64
  pIC50: 6.09
OSU-03012
  AUC: 0.668
  pIC50: 5.51
RDEA119; screen: GDSC drug entry 1014
  AUC: 0.304
  pIC50: 7.08
RDEA119; screen: GDSC drug entry 1526
  AUC: 0.233
  pIC50: 7.32
CUDC-101
  AUC: 0.247
  pIC50: 7.26

## H3255 (lung adenocarcinoma, adherent)
5-Fluorouracil
  AUC: 0.975
  pIC50: < 4.49
QS11
  AUC: 0.956
  pIC50: < 4.99
AC220
  AUC: 0.978
  pIC50: < 5.99
JNK-9L
  AUC: 0.688
  pIC50: 5.92
OSU-03012
  AUC: 0.963
  pIC50: < 4.80
RDEA119; screen: GDSC drug entry 1014
  AUC: 0.848
  pIC50: 5.31
RDEA119; screen: GDSC drug entry 1526
  AUC: 0.89
  pIC50: < 5.30
CUDC-101
  AUC: 0.334
  pIC50: 7.00

## H-EMC-SS (chondrosarcoma, adherent)
5-Fluorouracil
  AUC: 0.852
  pIC50: < 4.49
QS11
  AUC: 0.945
  pIC50: < 4.99
AC220
  AUC: 0.957
  pIC50: < 5.99
JNK-9L
  AUC: 0.745
  pIC50: 5.69
OSU-03012
  AUC: 0.856
  pIC50: < 4.80
RDEA119; screen: GDSC drug entry 1014
  AUC: 0.675
  pIC50: 5.95
CUDC-101
  AUC: 0.981
  pIC50: < 5.29

## HA7-RCC (kidney, adherent)
5-Fluorouracil
  AUC: 0.98
  pIC50: < 4.49
QS11
  AUC: 0.932
  pIC50: < 4.99
AC220
  AUC: 0.985
  pIC50: < 5.99
JNK-9L
  AUC: 0.61
  pIC50: 6.18
OSU-03012
  AUC: 0.697
  pIC50: 5.42
RDEA119; screen: GDSC drug entry 1014
  AUC: 0.891
  pIC50: < 5.30
RDEA119; screen: GDSC drug entry 1526
  AUC: 0.957
  pIC50: < 5.30
CUDC-101
  AUC: 0.978
  pIC50: < 5.29

## HAL-01 (lymphoblastic leukaemia, suspension)
5-Fluorouracil
  AUC: 0.624
  pIC50: 5.38
QS11
  AUC: 0.883
  pIC50: 5.06
AC220
  AUC: 0.908
  pIC50: < 5.99
JNK-9L
  AUC: 0.589
  pIC50: 6.27
OSU-03012
  AUC: 0.688
  pIC50: 5.50
RDEA119; screen: GDSC drug entry 1014
  AUC: 0.686
  pIC50: 6.01
RDEA119; screen: GDSC drug entry 1526
  AUC: 0.857
  pIC50: 5.47
CUDC-101
  AUC: 0.62
  pIC50: 6.18

## HARA (lung squamous cell carcinoma, adherent)
5-Fluorouracil
  AUC: 0.743
  pIC50: 4.95
QS11
  AUC: 0.968
  pIC50: < 4.99
AC220
  AUC: 0.982
  pIC50: < 5.99
JNK-9L
  AUC: 0.673
  pIC50: 5.97
OSU-03012
  AUC: 0.69
  pIC50: 5.42
RDEA119; screen: GDSC drug entry 1014
  AUC: 0.856
  pIC50: < 5.30
RDEA119; screen: GDSC drug entry 1526
  AUC: 0.852
  pIC50: 5.31
CUDC-101
  AUC: 0.582
  pIC50: 6.25

## HC-1 (hairy cell leukaemia, suspension)
5-Fluorouracil
  AUC: 0.467
  pIC50: 5.79
QS11
  AUC: 0.925
  pIC50: < 4.99
AC220
  AUC: 0.931
  pIC50: < 5.99
JNK-9L
  AUC: 0.456
  pIC50: 6.61
OSU-03012
  AUC: 0.68
  pIC50: 5.51
RDEA119; screen: GDSC drug entry 1014
  AUC: 0.914
  pIC50: < 5.30
RDEA119; screen: GDSC drug entry 1526
  AUC: 0.861
  pIC50: 5.40
CUDC-101
  AUC: 0.351
  pIC50: 6.90

## HCC38 (breast, adherent)
5-Fluorouracil
  AUC: 0.72
  pIC50: 5.05
QS11
  AUC: 0.985
  pIC50: < 4.99
AC220
  AUC: 0.978
  pIC50: < 5.99
JNK-9L
  AUC: 0.747
  pIC50: 5.76
OSU-03012
  AUC: 0.839
  pIC50: 4.91
RDEA119; screen: GDSC drug entry 1014
  AUC: 0.968
  pIC50: < 5.30
RDEA119; screen: GDSC drug entry 1526
  AUC: 0.972
  pIC50: < 5.30
CUDC-101
  AUC: 0.544
  pIC50: 6.37

## HCC1143 (breast, adherent)
5-Fluorouracil
  AUC: 0.979
  pIC50: < 4.49
QS11
  AUC: 0.943
  pIC50: < 4.99
AC220
  AUC: 0.979
  pIC50: < 5.99
JNK-9L
  AUC: 0.648
  pIC50: 6.01
OSU-03012
  AUC: 0.864
  pIC50: < 4.80
RDEA119; screen: GDSC drug entry 1014
  AUC: 0.683
  pIC50: 5.90
RDEA119; screen: GDSC drug entry 1526
  AUC: 0.739
  pIC50: 5.69
CUDC-101
  AUC: 0.487
  pIC50: 6.54

## HCC1395 (breast, adherent)
5-Fluorouracil
  AUC: 0.972
  pIC50: < 4.49
QS11
  AUC: 0.93
  pIC50: < 4.99
AC220
  AUC: 0.983
  pIC50: < 5.99
JNK-9L
  AUC: 0.591
  pIC50: 6.22
OSU-03012
  AUC: 0.749
  pIC50: 5.21
RDEA119; screen: GDSC drug entry 1014
  AUC: 0.934
  pIC50: < 5.30
RDEA119; screen: GDSC drug entry 1526
  AUC: 0.9
  pIC50: < 5.30
CUDC-101
  AUC: 0.9
  pIC50: < 5.29

## HCC1419 (breast, adherent)
5-Fluorouracil
  AUC: 0.968
  pIC50: < 4.49
QS11
  AUC: 0.957
  pIC50: < 4.99
AC220
  AUC: 0.918
  pIC50: < 5.99
JNK-9L
  AUC: 0.654
  pIC50: 5.99
OSU-03012
  AUC: 0.865
  pIC50: < 4.80
RDEA119; screen: GDSC drug entry 1014
  AUC: 0.972
  pIC50: < 5.30
RDEA119; screen: GDSC drug entry 1526
  AUC: 0.965
  pIC50: < 5.30
CUDC-101
  AUC: 0.721
  pIC50: 5.74

## HCC1569 (breast, adherent)
5-Fluorouracil
  AUC: 0.94
  pIC50: < 4.49
QS11
  AUC: 0.892
  pIC50: < 4.99
AC220
  AUC: 0.879
  pIC50: < 5.99
JNK-9L
  AUC: 0.539
  pIC50: 6.37
OSU-03012
  AUC: 0.744
  pIC50: 5.19
RDEA119; screen: GDSC drug entry 1014
  AUC: 0.917
  pIC50: < 5.30
RDEA119; screen: GDSC drug entry 1526
  AUC: 0.88
  pIC50: < 5.30
CUDC-101
  AUC: 0.63
  pIC50: 6.08
